These are yes or no findings as the source states them, for the method shown. Some results given as binding are weak or reduced against the parent protein; the word gives no strength.
T1: ATG18A, Arabidopsis (Arabidopsis) (UniProt Q93VB2)
T1 sequence: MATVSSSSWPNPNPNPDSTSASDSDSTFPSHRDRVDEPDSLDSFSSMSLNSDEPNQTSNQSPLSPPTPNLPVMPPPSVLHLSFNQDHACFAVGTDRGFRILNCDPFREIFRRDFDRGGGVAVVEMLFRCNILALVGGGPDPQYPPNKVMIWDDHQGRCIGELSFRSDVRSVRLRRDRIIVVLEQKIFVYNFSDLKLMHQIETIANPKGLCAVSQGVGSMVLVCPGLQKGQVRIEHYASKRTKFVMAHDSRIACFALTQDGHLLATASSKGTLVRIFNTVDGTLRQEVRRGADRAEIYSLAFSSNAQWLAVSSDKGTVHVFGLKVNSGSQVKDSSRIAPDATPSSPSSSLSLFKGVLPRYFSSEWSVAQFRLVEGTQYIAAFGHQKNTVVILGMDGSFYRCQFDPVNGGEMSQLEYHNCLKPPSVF

Protein sequences, listed by entry. Tags and fused reporters are not part of them.
UniProt F8S296: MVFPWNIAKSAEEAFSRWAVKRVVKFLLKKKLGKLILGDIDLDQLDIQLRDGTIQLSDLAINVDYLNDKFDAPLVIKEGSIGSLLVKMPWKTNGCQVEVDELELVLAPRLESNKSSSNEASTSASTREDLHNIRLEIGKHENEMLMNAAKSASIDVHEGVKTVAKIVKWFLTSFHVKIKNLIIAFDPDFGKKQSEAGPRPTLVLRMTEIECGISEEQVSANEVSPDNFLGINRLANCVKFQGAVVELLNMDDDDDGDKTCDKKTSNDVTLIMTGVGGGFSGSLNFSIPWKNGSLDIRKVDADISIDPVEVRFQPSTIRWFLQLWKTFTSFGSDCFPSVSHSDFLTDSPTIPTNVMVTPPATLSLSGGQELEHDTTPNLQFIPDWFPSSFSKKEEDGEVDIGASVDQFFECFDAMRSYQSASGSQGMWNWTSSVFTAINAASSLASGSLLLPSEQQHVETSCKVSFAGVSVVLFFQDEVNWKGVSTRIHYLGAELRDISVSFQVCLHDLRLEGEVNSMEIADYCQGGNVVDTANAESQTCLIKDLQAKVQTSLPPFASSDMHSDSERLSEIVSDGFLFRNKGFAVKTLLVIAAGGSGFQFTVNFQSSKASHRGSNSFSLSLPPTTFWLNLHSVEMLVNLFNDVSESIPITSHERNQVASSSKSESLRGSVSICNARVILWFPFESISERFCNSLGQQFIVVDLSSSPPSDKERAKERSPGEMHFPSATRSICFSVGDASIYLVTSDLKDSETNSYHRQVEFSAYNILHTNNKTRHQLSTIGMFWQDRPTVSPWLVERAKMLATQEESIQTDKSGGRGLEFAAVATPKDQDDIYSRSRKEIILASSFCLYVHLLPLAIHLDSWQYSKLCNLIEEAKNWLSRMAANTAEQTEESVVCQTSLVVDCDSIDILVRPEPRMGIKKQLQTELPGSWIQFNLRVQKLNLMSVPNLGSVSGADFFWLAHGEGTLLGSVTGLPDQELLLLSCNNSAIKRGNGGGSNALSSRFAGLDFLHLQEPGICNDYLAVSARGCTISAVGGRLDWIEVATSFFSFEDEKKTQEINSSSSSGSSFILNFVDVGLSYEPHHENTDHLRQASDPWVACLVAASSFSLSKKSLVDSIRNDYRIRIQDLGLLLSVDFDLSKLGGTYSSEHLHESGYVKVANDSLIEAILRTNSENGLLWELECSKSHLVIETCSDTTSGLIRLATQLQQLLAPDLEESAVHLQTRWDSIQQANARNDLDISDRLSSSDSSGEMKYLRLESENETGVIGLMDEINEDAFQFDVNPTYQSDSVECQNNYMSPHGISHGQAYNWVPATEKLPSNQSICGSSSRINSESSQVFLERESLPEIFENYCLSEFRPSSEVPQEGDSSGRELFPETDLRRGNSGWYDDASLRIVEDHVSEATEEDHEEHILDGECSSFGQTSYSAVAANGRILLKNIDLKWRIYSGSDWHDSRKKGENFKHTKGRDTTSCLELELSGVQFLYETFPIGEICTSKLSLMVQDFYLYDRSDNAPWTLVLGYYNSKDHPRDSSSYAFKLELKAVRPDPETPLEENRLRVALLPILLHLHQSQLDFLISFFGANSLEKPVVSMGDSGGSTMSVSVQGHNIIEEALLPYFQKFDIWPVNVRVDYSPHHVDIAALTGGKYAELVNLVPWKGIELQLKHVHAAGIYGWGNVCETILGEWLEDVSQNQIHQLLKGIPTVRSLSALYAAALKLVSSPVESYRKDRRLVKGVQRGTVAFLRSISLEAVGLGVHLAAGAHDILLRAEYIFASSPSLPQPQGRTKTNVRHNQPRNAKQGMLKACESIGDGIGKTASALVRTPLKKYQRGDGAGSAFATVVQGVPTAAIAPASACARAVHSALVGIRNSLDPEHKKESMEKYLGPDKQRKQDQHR

T2: ATG18B, Arabidopsis (Arabidopsis) (UniProt Q8H1Q8)
T2 sequence: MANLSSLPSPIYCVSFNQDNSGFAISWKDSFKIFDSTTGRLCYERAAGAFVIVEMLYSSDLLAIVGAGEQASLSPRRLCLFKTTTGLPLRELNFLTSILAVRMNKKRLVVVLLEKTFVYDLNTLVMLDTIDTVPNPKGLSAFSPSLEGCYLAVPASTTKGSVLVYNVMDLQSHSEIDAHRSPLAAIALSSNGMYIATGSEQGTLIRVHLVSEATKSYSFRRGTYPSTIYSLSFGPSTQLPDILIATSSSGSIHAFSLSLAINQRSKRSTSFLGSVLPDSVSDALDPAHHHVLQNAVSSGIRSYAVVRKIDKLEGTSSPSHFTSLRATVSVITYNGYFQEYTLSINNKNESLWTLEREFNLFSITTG

T3: ATG18C, Arabidopsis (Arabidopsis) (UniProt Q8GYD7)
T3 sequence: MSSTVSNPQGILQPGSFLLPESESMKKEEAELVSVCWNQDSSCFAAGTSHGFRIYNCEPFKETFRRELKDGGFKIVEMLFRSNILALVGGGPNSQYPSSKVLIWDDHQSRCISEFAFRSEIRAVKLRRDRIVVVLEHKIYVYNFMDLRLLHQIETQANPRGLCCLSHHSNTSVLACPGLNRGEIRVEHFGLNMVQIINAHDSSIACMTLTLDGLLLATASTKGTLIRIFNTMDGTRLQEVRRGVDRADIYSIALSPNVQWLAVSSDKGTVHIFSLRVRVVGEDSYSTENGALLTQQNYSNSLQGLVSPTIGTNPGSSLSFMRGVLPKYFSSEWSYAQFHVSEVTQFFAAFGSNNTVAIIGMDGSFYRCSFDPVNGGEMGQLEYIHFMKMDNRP

T4: ATG18D, Arabidopsis (Arabidopsis) (UniProt Q0WPK3)
T4 sequence: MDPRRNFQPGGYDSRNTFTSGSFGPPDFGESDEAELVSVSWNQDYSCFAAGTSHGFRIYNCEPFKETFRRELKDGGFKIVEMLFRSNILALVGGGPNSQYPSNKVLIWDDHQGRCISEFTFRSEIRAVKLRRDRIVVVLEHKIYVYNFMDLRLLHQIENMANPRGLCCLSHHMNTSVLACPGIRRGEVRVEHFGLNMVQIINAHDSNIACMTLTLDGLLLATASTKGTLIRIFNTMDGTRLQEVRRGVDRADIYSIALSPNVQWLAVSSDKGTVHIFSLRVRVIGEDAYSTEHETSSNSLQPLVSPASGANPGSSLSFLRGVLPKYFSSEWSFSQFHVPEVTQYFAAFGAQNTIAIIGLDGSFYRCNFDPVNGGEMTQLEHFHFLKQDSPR

T5: ATG18E, Arabidopsis (Arabidopsis) (UniProt Q9FHK8)
T5 sequence: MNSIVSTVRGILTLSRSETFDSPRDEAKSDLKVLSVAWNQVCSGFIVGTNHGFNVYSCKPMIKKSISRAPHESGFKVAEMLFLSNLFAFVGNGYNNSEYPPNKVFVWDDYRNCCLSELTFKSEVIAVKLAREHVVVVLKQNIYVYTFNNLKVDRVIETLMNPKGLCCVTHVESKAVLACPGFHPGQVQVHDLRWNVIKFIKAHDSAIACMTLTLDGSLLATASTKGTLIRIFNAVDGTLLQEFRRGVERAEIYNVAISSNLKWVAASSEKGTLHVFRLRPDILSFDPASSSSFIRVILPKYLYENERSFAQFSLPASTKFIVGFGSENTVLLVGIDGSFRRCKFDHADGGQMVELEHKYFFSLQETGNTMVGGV

T6: ATG18F, Arabidopsis (Arabidopsis) (UniProt Q9FH32)
T6 sequence: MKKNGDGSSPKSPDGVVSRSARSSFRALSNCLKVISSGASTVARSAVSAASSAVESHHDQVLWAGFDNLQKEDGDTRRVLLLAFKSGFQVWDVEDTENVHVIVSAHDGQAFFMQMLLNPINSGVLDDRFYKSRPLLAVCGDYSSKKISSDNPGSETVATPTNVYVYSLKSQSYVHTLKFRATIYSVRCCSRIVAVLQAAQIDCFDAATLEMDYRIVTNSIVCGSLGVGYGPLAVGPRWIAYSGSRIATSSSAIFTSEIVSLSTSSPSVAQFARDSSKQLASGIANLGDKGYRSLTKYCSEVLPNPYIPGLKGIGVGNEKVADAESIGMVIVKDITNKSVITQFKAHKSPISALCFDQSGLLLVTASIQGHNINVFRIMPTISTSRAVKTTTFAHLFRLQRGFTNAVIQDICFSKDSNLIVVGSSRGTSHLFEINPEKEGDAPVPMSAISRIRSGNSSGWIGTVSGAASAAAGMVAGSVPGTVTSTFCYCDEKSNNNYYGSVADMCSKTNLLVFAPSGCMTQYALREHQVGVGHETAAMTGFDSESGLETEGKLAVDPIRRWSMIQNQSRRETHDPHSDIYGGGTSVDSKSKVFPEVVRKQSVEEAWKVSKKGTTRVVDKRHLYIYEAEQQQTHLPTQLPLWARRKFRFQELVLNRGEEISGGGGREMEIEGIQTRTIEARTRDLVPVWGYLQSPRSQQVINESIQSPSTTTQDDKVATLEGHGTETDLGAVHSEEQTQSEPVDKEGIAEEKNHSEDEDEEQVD

T7: ATG18G, Arabidopsis (Arabidopsis) (UniProt Q8GUL1)
T7 sequence: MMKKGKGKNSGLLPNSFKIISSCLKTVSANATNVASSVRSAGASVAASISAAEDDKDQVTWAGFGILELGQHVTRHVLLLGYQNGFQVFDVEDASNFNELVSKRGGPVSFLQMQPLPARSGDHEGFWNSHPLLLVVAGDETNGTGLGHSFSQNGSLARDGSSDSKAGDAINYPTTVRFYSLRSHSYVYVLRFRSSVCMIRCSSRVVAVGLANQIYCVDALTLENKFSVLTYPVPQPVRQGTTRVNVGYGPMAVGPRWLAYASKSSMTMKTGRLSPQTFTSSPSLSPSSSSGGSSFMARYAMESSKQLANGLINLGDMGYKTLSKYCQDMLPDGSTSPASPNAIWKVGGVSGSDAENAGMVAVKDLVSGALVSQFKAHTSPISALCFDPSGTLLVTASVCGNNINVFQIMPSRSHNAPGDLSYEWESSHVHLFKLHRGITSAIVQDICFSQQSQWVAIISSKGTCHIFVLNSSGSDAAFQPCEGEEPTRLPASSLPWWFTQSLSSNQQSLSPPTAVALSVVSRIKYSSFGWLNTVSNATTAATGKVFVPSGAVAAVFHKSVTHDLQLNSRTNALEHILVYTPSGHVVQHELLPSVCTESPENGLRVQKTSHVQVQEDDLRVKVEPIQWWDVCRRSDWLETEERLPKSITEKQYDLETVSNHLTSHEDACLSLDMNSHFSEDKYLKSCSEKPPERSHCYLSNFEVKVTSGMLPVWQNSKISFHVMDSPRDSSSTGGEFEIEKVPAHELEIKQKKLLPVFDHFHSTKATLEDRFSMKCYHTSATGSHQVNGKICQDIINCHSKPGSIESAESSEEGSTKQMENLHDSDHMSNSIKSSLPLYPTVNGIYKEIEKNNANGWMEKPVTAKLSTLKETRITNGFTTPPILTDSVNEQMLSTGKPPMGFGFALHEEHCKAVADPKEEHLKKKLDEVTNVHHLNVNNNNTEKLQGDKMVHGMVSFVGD

T8: ATG18H, Arabidopsis (Arabidopsis) (UniProt Q8H1Q5)
T8 sequence: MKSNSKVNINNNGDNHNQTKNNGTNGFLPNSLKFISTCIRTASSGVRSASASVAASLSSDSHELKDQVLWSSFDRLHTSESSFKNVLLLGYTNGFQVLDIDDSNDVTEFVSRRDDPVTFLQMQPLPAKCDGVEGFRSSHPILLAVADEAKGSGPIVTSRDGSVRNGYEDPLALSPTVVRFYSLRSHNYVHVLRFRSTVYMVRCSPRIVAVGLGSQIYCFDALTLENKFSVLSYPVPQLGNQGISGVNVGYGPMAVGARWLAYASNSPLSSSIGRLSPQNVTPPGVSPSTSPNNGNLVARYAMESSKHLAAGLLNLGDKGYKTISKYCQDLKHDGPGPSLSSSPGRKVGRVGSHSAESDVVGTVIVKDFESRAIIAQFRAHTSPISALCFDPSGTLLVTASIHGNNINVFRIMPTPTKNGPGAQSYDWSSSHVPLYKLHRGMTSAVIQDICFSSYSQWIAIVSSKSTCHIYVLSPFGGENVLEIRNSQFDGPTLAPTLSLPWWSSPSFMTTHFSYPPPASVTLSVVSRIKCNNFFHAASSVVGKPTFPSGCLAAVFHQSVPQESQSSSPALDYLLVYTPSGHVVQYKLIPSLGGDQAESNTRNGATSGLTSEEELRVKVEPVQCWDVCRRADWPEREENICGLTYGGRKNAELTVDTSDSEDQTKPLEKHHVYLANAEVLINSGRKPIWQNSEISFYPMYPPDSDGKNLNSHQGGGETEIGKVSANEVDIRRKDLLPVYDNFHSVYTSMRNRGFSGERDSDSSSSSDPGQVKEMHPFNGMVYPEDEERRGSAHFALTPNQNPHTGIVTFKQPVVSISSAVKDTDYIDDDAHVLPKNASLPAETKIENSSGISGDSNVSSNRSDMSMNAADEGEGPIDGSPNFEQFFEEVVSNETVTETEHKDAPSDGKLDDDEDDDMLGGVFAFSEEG

B1: ATG18A, Arabidopsis (protein, UniProt Q93VB2 1-425)
chain: T1 sequence

How the values were obtained:
Test in all cases: two-hybrid; Matchmaker GAL4 system (Clontech), pGADT7 (AD) and pGBKT7 (BD) fusions cotransformed into yeast AH109; positive clones selected on SD medium lacking Trp, Leu and His with 1 mM 3-AT
[1] = biological target: T1, ATG18A, Arabidopsis (Arabidopsis)
[2] = biological target: T2, ATG18B, Arabidopsis (Arabidopsis)
[3] = biological target: T3, ATG18C, Arabidopsis (Arabidopsis)
[4] = biological target: T4, ATG18D, Arabidopsis (Arabidopsis)
[5] = biological target: T5, ATG18E, Arabidopsis (Arabidopsis)
[6] = biological target: T6, ATG18F, Arabidopsis (Arabidopsis)
[7] = biological target: T7, ATG18G, Arabidopsis (Arabidopsis)
[8] = biological target: T8, ATG18H, Arabidopsis (Arabidopsis)
[9] = biological target: Autophagy-related 2 (ATG2), Arabidopsis (Arabidopsis) (UniProt F8S296)

Molecule	binding [1]	binding [2]	binding [3]	binding [4]	binding [5]	binding [6]	binding [7]	binding [8]	binding [9]
Autophagy-related 2 (ATG2), Arabidopsis (from UniProt F8S296 1-1892)	binds	no binding	no binding	no binding	no binding	no binding	no binding	no binding	no binding
B1									binds

— PMC7350272
